# The supplement of paper PMC8728848
# This is one part of the list.
# B1: FGFR2-Fc (protein)
# chain: MVNVTDAISSGDDEDDTDGAEDFVSENSNNKRAPYWTNTEKMEKRLHAVPAANTVKFRCPAGGNPMPTMRWLKNGKEFKQEHRIGGYKVRNQHWSLIMESVVPSDKGNYTCVVENEYGSINHTYHLDVVERSPHRPILQAGLPANASTVVGGDVEFVCKVYSDAQPHIQWIKHVEKNGSKYGPDGLPYLKVLKHSGINSSNAEVLALFNVTEADAGEYICKVSNYIGQANQSAWLTVLPKQQAPGREKEITASPDYLETRPLEQKLISEEDLAANDILDYKDDDDKV
# Legend:
# Experiment in all cases: glycan array binding signal (z-score within array); higher = stronger binding
# Conditions in all cases: glycan notation: IUPAC condensed, linker removed
# [1] = target: Fuc(a1-2)Gal
# Outline: (§1)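 Columns mapping to the same glycan were averaged after glycan names were converted to IUPAC-condensed notation. The data come from 3228 arrays in the Consortium for Functional Glycomics database, limited to those with an available protein sequence. Binding is reported as a within-array Z-score averaged across arrays of one protein sequence and across linkers.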
# [2] = target: Fuc(a1-2)Gal(b1-3)GalNAc
# Outline: as §1
# [3] = target: Fuc(a1-2)Gal(b1-3)GalNAc(a1-3)[Fuc(a1-2)]Gal(b1-4)Glc
# Outline: as §1
# [4] = target: Fuc(a1-2)Gal(b1-3)GalNAc(a1-3)[Fuc(a1-2)]Gal(b1-4)GlcNAc
# Outline: as §1
# [5] = target: Fuc(a1-2)Gal(b1-3)GalNAc(b1-3)Gal
# Outline: as §1
# [6] = target: Fuc(a1-2)Gal(b1-3)GalNAc(b1-3)Gal(a1-4)Gal(b1-4)Glc
# Outline: as §1
# [7] = target: Fuc(a1-2)Gal(b1-3)GalNAc(b1-4)[Neu5Ac(a2-3)]Gal(b1-4)Glc
# Outline: as §1
# [8] = target: Fuc(a1-2)Gal(b1-3)GlcNAc
# Outline: as §1
# [9] = target: Fuc(a1-2)Gal(b1-3)GlcNAc(b1-2)Man(a1-3)[Fuc(a1-2)Gal(b1-3)GlcNAc(b1-2)Man(a1-6)]Man(b1-4)GlcNAc(b1-4)GlcNAc
# Outline: as §1
# [10] = target: Fuc(a1-2)Gal(b1-3)GlcNAc(b1-2)Man(a1-3)[Fuc(a1-2)Gal(b1-3)GlcNAc(b1-2)Man(a1-6)]Man(b1-4)GlcNAc(b1-4)[Fuc(a1-6)]GlcNAc
# Outline: as §1
# [11] = target: Fuc(a1-2)Gal(b1-3)GlcNAc(b1-3)Gal(b1-4)Glc
# Outline: as §1
# [12] = target: Fuc(a1-2)Gal(b1-3)GlcNAc(b1-3)GalNAc
# Outline: as §1
# [13] = target: Fuc(a1-2)Gal(b1-3)GlcNAc(b1-3)[Fuc(a1-2)Gal(b1-3)GlcNAc(b1-6)]GalNAc
# Outline: as §1
# [14] = target: Fuc(a1-2)Gal(b1-3)GlcNAc(b1-3)[Gal(b1-4)GlcNAc(b1-6)]Gal(b1-4)Glc
# Outline: as §1
# [15] = target: Fuc(a1-2)Gal(b1-3)GlcNAc(b1-3)[Neu5Ac(a2-6)Gal(b1-4)GlcNAc(b1-6)]Gal(b1-4)Glc
# Outline: as §1
# [16] = target: Fuc(a1-2)Gal(b1-3)GlcNAc6S
# Outline: as §1
# [17] = target: Fuc(a1-2)Gal(b1-3)[Fuc(a1-4)]GlcNAc
# Outline: as §1
# [18] = target: Fuc(a1-2)Gal(b1-3)[Fuc(a1-4)]GlcNAc(b1-2)Man(a1-3)[Fuc(a1-2)Gal(b1-3)[Fuc(a1-4)]GlcNAc(b1-2)Man(a1-3)]Man(b1-4)GlcNAc(b1-4)GlcNAc
# Outline: as §1
# [19] = target: Fuc(a1-2)Gal(b1-3)[Fuc(a1-4)]GlcNAc(b1-2)Man(a1-3)[Fuc(a1-2)Gal(b1-3)[Fuc(a1-4)]GlcNAc(b1-2)Man(a1-6)]Man(b1-4)GlcNAc(b1-4)[Fuc(a1-6)]GlcNAc(b1-4)[Fuc(a1-6)]GlcNAc
# Outline: as §1
# [20] = target: Fuc(a1-2)Gal(b1-3)[Fuc(a1-4)]GlcNAc(b1-3)[Fuc(a1-3)[Gal(b1-4)]GlcNAc(b1-6)]Gal(b1-4)Glc
# Outline: as §1
# [21] = target: Fuc(a1-2)Gal(b1-3)[Fuc(a1-4)]GlcNAc(b1-3)[Gal(b1-4)GlcNAc(b1-6)]Gal(b1-4)Glc
# Outline: as §1
# [22] = target: Fuc(a1-2)Gal(b1-4)Glc
# Outline: as §1
# [23] = target: Fuc(a1-2)Gal(b1-4)Glc6S
# Outline: as §1
# [24] = target: Fuc(a1-2)Gal(b1-4)GlcNAc
# Outline: as §1
# [25] = target: Fuc(a1-2)Gal(b1-4)GlcNAc(b1-2)Man
# Outline: as §1
# [26] = target: Fuc(a1-2)Gal(b1-4)GlcNAc(b1-2)Man(a1-3)[Fuc(a1-2)Gal(b1-4)GlcNAc(b1-2)Man(a1-6)]Man(b1-4)GlcNAc(b1-4)GlcNAc
# Outline: as §1
# [27] = target: Fuc(a1-2)Gal(b1-4)GlcNAc(b1-2)Man(a1-3)[Fuc(a1-2)Gal(b1-4)GlcNAc(b1-2)Man(a1-6)]Man(b1-4)GlcNAc(b1-4)[Fuc(a1-6)]GlcNAc
# Outline: as §1
# [28] = target: Fuc(a1-2)Gal(b1-4)GlcNAc(b1-2)[Fuc(a1-2)Gal(b1-4)GlcNAc(b1-4)]Man(a1-3)[Fuc(a1-2)Gal(b1-4)GlcNAc(b1-2)Man(a1-6)]Man(b1-4)GlcNAc(b1-4)GlcNAc
# Outline: as §1
# [29] = target: Fuc(a1-2)Gal(b1-4)GlcNAc(b1-3)Gal(b1-4)GlcNAc
# Outline: as §1
# [30] = target: Fuc(a1-2)Gal(b1-4)GlcNAc(b1-3)Gal(b1-4)GlcNAc(b1-2)Man(a1-3)[Fuc(a1-2)Gal(b1-4)GlcNAc(b1-3)Gal(b1-4)GlcNAc(b1-2)Man(a1-6)]Man(b1-4)GlcNAc(b1-4)GlcNAc
# Outline: as §1
binder,measurement,setting,value
B1,glycan array binding signal (z-score),[1],-0.045
same,glycan array binding signal (z-score),[2],-0.061
same,glycan array binding signal (z-score),[3],-0.02
same,glycan array binding signal (z-score),[4],-0.172
same,glycan array binding signal (z-score),[5],-0.249
same,glycan array binding signal (z-score),[6],-0.351
same,glycan array binding signal (z-score),[7],-0.072
same,glycan array binding signal (z-score),[8],-0.144
same,glycan array binding signal (z-score),[9],-0.319
same,glycan array binding signal (z-score),[10],0.195
same,glycan array binding signal (z-score),[11],-0.099
same,glycan array binding signal (z-score),[12],-0.369
same,glycan array binding signal (z-score),[13],0.041
same,glycan array binding signal (z-score),[14],0.277
same,glycan array binding signal (z-score),[15],-0.436
same,glycan array binding signal (z-score),[16],0.087
same,glycan array binding signal (z-score),[17],-0.345
same,glycan array binding signal (z-score),[18],-0.195
same,glycan array binding signal (z-score),[19],0.4
same,glycan array binding signal (z-score),[20],0.044
same,glycan array binding signal (z-score),[21],-0.452
same,glycan array binding signal (z-score),[22],-0.612
same,glycan array binding signal (z-score),[23],0.039
same,glycan array binding signal (z-score),[24],0.369
same,glycan array binding signal (z-score),[25],0.252
same,glycan array binding signal (z-score),[26],-0.068
same,glycan array binding signal (z-score),[27],0.141
same,glycan array binding signal (z-score),[28],0.308
same,glycan array binding signal (z-score),[29],-0.25
same,glycan array binding signal (z-score),[30],0.021
